This is one part of the list.
What was measured:
Assay in all cases: glycan array binding signal (z-score within array); higher = stronger binding
Settings in all cases: glycan notation: IUPAC condensed, linker removed
Gal(a1-2)Gal = target: Gal(a1-2)Gal
How it was run: (§1)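 The Consortium for Functional Glycomics database supplied 3228 glycan arrays, of which those lacking an available protein sequence were dropped. The binding signal, a within-array Z-score, was averaged across arrays of the same protein sequence and across linkers. Negative scores can be read as non-binding.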

Gal(a1-3)Gal = target: Gal(a1-3)Gal
How it was run: as §1

Gal(a1-3)Gal(b1-3)GlcNAc = target: Gal(a1-3)Gal(b1-3)GlcNAc
How it was run: as §1

Gal(a1-3)Gal(b1-4)Glc = target: Gal(a1-3)Gal(b1-4)Glc
How it was run: as §1

Gal(a1-3)Gal(b1-4)GlcNAc = target: Gal(a1-3)Gal(b1-4)GlcNAc
How it was run: as §1

[1] = target: Gal(a1-3)Gal(b1-4)[Fuc(a1-3)]GlcNAc
How it was run: as §1

[2] = target: Gal(a1-3)Gal(b1-4)[Fuc(a1-3)]GlcNAc(b1-2)Man(a1-3)[Gal(a1-3)Gal(b1-4)[Fuc(a1-3)]GlcNAc(b1-2)Man(a1-6)]Man(b1-4)GlcNAc(b1-4)GlcNAc
How it was run: as §1

Gal(a1-3)GalNAc = target: Gal(a1-3)GalNAc
How it was run: as §1

[3] = target: Gal(a1-3)[Gal(a1-4)]Gal(b1-4)GlcNAc
How it was run: as §1

Gal(a1-4)Gal(b1-4)Glc = target: Gal(a1-4)Gal(b1-4)Glc
How it was run: as §1

Gal(a1-4)Gal(b1-4)GlcNAc = target: Gal(a1-4)Gal(b1-4)GlcNAc
How it was run: as §1

[4] = target: Gal(a1-4)Gal(b1-4)GlcNAc(b1-3)Gal(b1-4)Glc
How it was run: as §1

Gal(a1-4)GlcNAc = target: Gal(a1-4)GlcNAc
How it was run: as §1

Gal(a1-6)Glc = target: Gal(a1-6)Glc
How it was run: as §1

Gal(b1-2)Gal = target: Gal(b1-2)Gal
How it was run: as §1

Gal(b1-3)Gal = target: Gal(b1-3)Gal
How it was run: as §1

Gal(b1-3)Gal(b1-4)GlcNAc = target: Gal(b1-3)Gal(b1-4)GlcNAc
How it was run: as §1

[5] = target: Gal(b1-3)Gal(b1-4)GlcNAc(b1-2)Man(a1-3)[Gal(b1-3)Gal(b1-4)GlcNAc(b1-2)Man(a1-6)]Man(b1-4)GlcNAc(b1-4)GlcNAc
How it was run: as §1

Gal(b1-3)GalNAc = target: Gal(b1-3)GalNAc
How it was run: as §1

[6] = target: Gal(b1-3)GalNAc(a1-3)[Fuc(a1-2)]Gal(b1-4)Glc
How it was run: as §1

[7] = target: Gal(b1-3)GalNAc(a1-3)[Fuc(a1-2)]Gal(b1-4)GlcNAc
How it was run: as §1

[8] = target: Gal(b1-3)GalNAc(b1-3)Gal(a1-4)Gal(b1-4)Glc
How it was run: as §1

[9] = target: Gal(b1-3)GalNAc(b1-4)Gal(b1-4)Glc
How it was run: as §1

[10] = target: Gal(b1-3)GalNAc(b1-4)[Neu5Ac(a2-3)]Gal(b1-4)Glc
How it was run: as §1

Gal(b1-3)GlcNAc = target: Gal(b1-3)GlcNAc
How it was run: as §1

[11] = target: Gal(b1-3)GlcNAc(b1-2)Man(a1-3)[Gal(b1-3)GlcNAc(b1-2)Man(a1-6)]Man(b1-4)GlcNAc(b1-4)GlcNAc
How it was run: as §1

[12] = target: Gal(b1-3)GlcNAc(b1-2)Man(a1-3)[Gal(b1-3)GlcNAc(b1-2)Man(a1-6)]Man(b1-4)GlcNAc(b1-4)[Fuc(a1-6)]GlcNAc
How it was run: as §1

[13] = target: Gal(b1-3)GlcNAc(b1-3)Gal(b1-3)GlcNAc
How it was run: as §1

[14] = target: Gal(b1-3)GlcNAc(b1-3)Gal(b1-4)Glc
How it was run: as §1

[15] = target: Gal(b1-3)GlcNAc(b1-3)Gal(b1-4)GlcNAc
How it was run: as §1

[16] = target: Gal(b1-3)[Fuc(a1-4)]GlcNAc
How it was run: as §1

[17] = target: Gal(b1-3)[Fuc(a1-4)]GlcNAc(b1-2)Man(a1-3)[Gal(b1-3)[Fuc(a1-4)]GlcNAc(b1-2)Man(a1-6)]Man(b1-4)GlcNAc(b1-4)GlcNAc
How it was run: as §1

[18] = target: Gal(b1-3)[Fuc(a1-4)]GlcNAc(b1-2)Man(a1-3)[Gal(b1-3)[Fuc(a1-4)]GlcNAc(b1-2)Man(a1-6)]Man(b1-4)GlcNAc(b1-4)[Fuc(a1-6)]GlcNAc
How it was run: as §1

[19] = target: Gal(b1-3)[Fuc(a1-4)]GlcNAc(b1-3)Gal(b1-3)[Fuc(a1-4)]GlcNAc
How it was run: as §1

[20] = target: Gal(b1-3)[Fuc(a1-4)]GlcNAc(b1-3)Gal(b1-4)GlcNAc
How it was run: as §1

[21] = target: Gal(b1-3)[Fuc(a1-4)]GlcNAc(b1-3)Gal(b1-4)[Fuc(a1-3)]GlcNAc
How it was run: as §1

[22] = target: Gal(b1-3)[GlcNAc(b1-6)]GalNAc
How it was run: as §1

[23] = target: Gal(b1-3)[Neu5Ac(a2-6)]GalNAc
How it was run: as §1

[24] = target: Gal(b1-3)[Neu5Ac(a2-6)]GlcNAc(b1-6)Gal(b1-4)Glc
How it was run: as §1

[25] = target: Gal(b1-3)[Neu5Ac(b2-6)]GalNAc
How it was run: as §1

[26] = target: Gal(b1-4)GalNAc(a1-3)[Fuc(a1-2)]Gal(b1-4)GlcNAc
How it was run: as §1

[27] = target: Gal(b1-4)GalNAc(b1-3)[Fuc(a1-2)]Gal(b1-4)GlcNAc
How it was run: as §1

Gal(b1-4)Glc = target: Gal(b1-4)Glc
How it was run: as §1

Gal(b1-4)Glc6S = target: Gal(b1-4)Glc6S
How it was run: as §1

Gal(b1-4)GlcNAc = target: Gal(b1-4)GlcNAc
How it was run: as §1

[28] = target: Gal(b1-4)GlcNAc(a1-6)Gal(b1-4)GlcNAc
How it was run: as §1

[29] = target: Gal(b1-4)GlcNAc(b1-2)Man(a1-3)Man(b1-4)GlcNAc(b1-4)GlcNAc
How it was run: as §1

[30] = target: Gal(b1-4)GlcNAc(b1-2)Man(a1-3)[Gal(b1-4)GlcNAc(b1-2)Man(a1-6)]Man(b1-4)GlcNAc(b1-4)GlcNAc
How it was run: as §1

[31] = target: Gal(b1-4)GlcNAc(b1-2)Man(a1-3)[Gal(b1-4)GlcNAc(b1-2)Man(a1-6)]Man(b1-4)GlcNAc(b1-4)[Fuc(a1-6)]GlcNAc
How it was run: as §1

[32] = target: Gal(b1-4)GlcNAc(b1-2)Man(a1-3)[Man(a1-6)]Man(b1-4)GlcNAc(b1-4)GlcNAc
How it was run: as §1

[33] = target: Gal(b1-4)GlcNAc(b1-2)Man(a1-6)Man(b1-4)GlcNAc(b1-4)GlcNAc
How it was run: as §1

[34] = target: Gal(b1-4)GlcNAc(b1-2)Man(a1-6)[Man(a1-3)]Man(b1-4)GlcNAc(b1-4)GlcNAc
How it was run: as §1

[35] = target: Gal(b1-4)GlcNAc(b1-2)[Gal(b1-4)GlcNAc(b1-4)]Man(a1-3)[Gal(b1-4)GlcNAc(b1-2)Man(a1-6)]Man(b1-4)GlcNAc(b1-4)GlcNAc
How it was run: as §1

[36] = target: Gal(b1-4)GlcNAc(b1-3)Gal(b1-3)GlcNAc
How it was run: as §1

[37] = target: Gal(b1-4)GlcNAc(b1-3)Gal(b1-4)Glc
How it was run: as §1

[38] = target: Gal(b1-4)GlcNAc(b1-3)Gal(b1-4)GlcNAc
How it was run: as §1

[39] = target: Gal(b1-4)GlcNAc(b1-3)Gal(b1-4)GlcNAc(b1-3)Gal(b1-4)GlcNAc
How it was run: as §1

[40] = target: Gal(b1-4)GlcNAc(b1-3)Gal(b1-4)[Fuc(a1-3)]GlcNAc(b1-3)Gal(b1-4)[Fuc(a1-3)]GlcNAc
How it was run: as §1

[41] = target: Gal(b1-4)GlcNAc(b1-3)GalNAc
How it was run: as §1

[42] = target: Gal(b1-4)GlcNAc(b1-3)[Gal(b1-4)GlcNAc(b1-6)]Gal(b1-4)GlcNAc
How it was run: as §1

B1: DGL (Dioclea grandiflora), P08902 (protein)
chain: ADTIVAVELDSYPNTDIGDPNYPHIGIDIKSIRSKSTARWNMQTGKVGTVHISYNSVAKRLSAVVSYSGSSSTTVSYDVDLNNVLPEWVRVGLSATTGLYKETNTILSWSFTSKLKTNSIADENSLHFSFHKFSQNPKDLILQGDAFTDSDGNLELTKVSSSGDPQGNSVGRALFYAPVHIWESSAVVASFDATFTFLIKSPDREPADGITFFIANTDTSIPSGSGGRLLGLFPDAN
Gal(a1-2)Gal
  glycan array binding signal (z-score): -0.184
Gal(a1-3)Gal
  glycan array binding signal (z-score): -0.18
Gal(a1-3)Gal(b1-3)GlcNAc
  glycan array binding signal (z-score): -0.171
Gal(a1-3)Gal(b1-4)Glc
  glycan array binding signal (z-score): -0.181
Gal(a1-3)Gal(b1-4)GlcNAc
  glycan array binding signal (z-score): -0.182
[1]
  glycan array binding signal (z-score): -0.176
[2]
  glycan array binding signal (z-score): -0.175
Gal(a1-3)GalNAc
  glycan array binding signal (z-score): -0.173
[3]
  glycan array binding signal (z-score): -0.176
Gal(a1-4)Gal(b1-4)Glc
  glycan array binding signal (z-score): -0.164
Gal(a1-4)Gal(b1-4)GlcNAc
  glycan array binding signal (z-score): -0.174
[4]
  glycan array binding signal (z-score): -0.163
Gal(a1-4)GlcNAc
  glycan array binding signal (z-score): -0.178
Gal(a1-6)Glc
  glycan array binding signal (z-score): -0.182
Gal(b1-2)Gal
  glycan array binding signal (z-score): -0.176
Gal(b1-3)Gal
  glycan array binding signal (z-score): -0.186
Gal(b1-3)Gal(b1-4)GlcNAc
  glycan array binding signal (z-score): -0.181
[5]
  glycan array binding signal (z-score): -0.172
Gal(b1-3)GalNAc
  glycan array binding signal (z-score): -0.17
[6]
  glycan array binding signal (z-score): -0.165
[7]
  glycan array binding signal (z-score): -0.176
[8]
  glycan array binding signal (z-score): -0.177
[9]
  glycan array binding signal (z-score): -0.178
[10]
  glycan array binding signal (z-score): -0.184
Gal(b1-3)GlcNAc
  glycan array binding signal (z-score): -0.172
[11]
  glycan array binding signal (z-score): -0.164
[12]
  glycan array binding signal (z-score): -0.009
[13]
  glycan array binding signal (z-score): -0.176
[14]
  glycan array binding signal (z-score): -0.18
[15]
  glycan array binding signal (z-score): -0.18
[16]
  glycan array binding signal (z-score): -0.18
[17]
  glycan array binding signal (z-score): -0.077
[18]
  glycan array binding signal (z-score): -0.147
[19]
  glycan array binding signal (z-score): -0.171
[20]
  glycan array binding signal (z-score): -0.18
[21]
  glycan array binding signal (z-score): -0.175
[22]
  glycan array binding signal (z-score): -0.18
[23]
  glycan array binding signal (z-score): -0.176
[24]
  glycan array binding signal (z-score): -0.172
[25]
  glycan array binding signal (z-score): -0.172
[26]
  glycan array binding signal (z-score): -0.172
[27]
  glycan array binding signal (z-score): -0.178
Gal(b1-4)Glc
  glycan array binding signal (z-score): -0.179
Gal(b1-4)Glc6S
  glycan array binding signal (z-score): -0.176
Gal(b1-4)GlcNAc
  glycan array binding signal (z-score): -0.177
[28]
  glycan array binding signal (z-score): -0.178
[29]
  glycan array binding signal (z-score): -0.177
[30]
  glycan array binding signal (z-score): -0.174
[31]
  glycan array binding signal (z-score): -0.175
[32]
  glycan array binding signal (z-score): -0.151
[33]
  glycan array binding signal (z-score): -0.177
[34]
  glycan array binding signal (z-score): -0.028
[35]
  glycan array binding signal (z-score): -0.161
[36]
  glycan array binding signal (z-score): -0.177
[37]
  glycan array binding signal (z-score): -0.17
[38]
  glycan array binding signal (z-score): -0.18
[39]
  glycan array binding signal (z-score): -0.178
[40]
  glycan array binding signal (z-score): -0.174
[41]
  glycan array binding signal (z-score): -0.177
[42]
  glycan array binding signal (z-score): -0.178
